Some of the results follow.
What follows are sequences tested on PF3D7_0420300 AP2 domain 1 (GST-tagged) (assay: gcPBM binding intensity (ln(normalized median fluorescence intensity)); higher = stronger DNA binding).
Summary of the method: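 After 1 h on an Agilent 4 × 180k array of primer-extended double-stranded 36-bp intergenic genomic probes and negative controls, bound GST-tagged P. falciparum DNA-binding domains were detected with Alexa488 anti-GST antibody and scanned at 488 nm. The domains had been expressed in E. coli, and binding took place in 1× PBS with 1% milk, 0.2 mg/ml BSA, 0.5% salmon testes DNA and 0.03% Triton X-100. Binding intensity is the highest Masliner-normalised natural-log median intensity across replicate spots of either probe orientation.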

Row | Sequence | gcPBM binding intensity (ln)
1 | TTATATAGAATTAATTTCTTTTTTTTCTTTTTTAAA [CACACA_negctrl_site1308] | 8.79
2 | TATAATGGTAAAAACACACAAATATGAAGATGTTAA [CACACA_site6479] | 9.3
3 | GATGGGCAAATTTACTGTACTTTTATAATATTTTTT [XGTACX_site4830] | 9.47
4 | AAAATTGTGAAAGGGAAGATGATCAAATTGTTAAGG [CACACA_negctrl_site1492] | 9.37
5 | AAAAAAAATTATATTTGTACGCATTAAAAAATCTAA [XGTACX_site1616] | 8.88
6 | GTACCTATAAATATTACACACATTTTCATTTTTAAC [CACACA_site7022] | 9.75
7 | CTTAAAAACAAAAATGCACACATAATAAGCATATGT [CACACA_site9149] | 9.43
8 | ATTAAACTCATTAAGAGTACAGATAACATTAAAGTA [XGTACX_site8697] | 9.19
9 | TGAAATTAGATATATACACACATATAGATTTATATG [CACACA_site7619] | 9.44
10 | AATATCACATTCCACGGTACACACTAAAAGAAAAAT [XGTACX_site7653] | 9.75
11 | ATAAATACGATTAATTAGGTTTGTATAAATTAAATT [GTGCAC_negctrl_site635] | 9.26
12 | TCATGTAGTAAAAACTGTACAAATTATTTATCATGT [XGTACX_site1727] | 9.24
13 | ATAACTTTTGCGCGTACACACATTTATCCTCTTTAT [CACACA_site209] | 9.96
14 | CTATAATAGAAGTGTACACACATATTTATGTCTGTA [CACACA_site7462] | 9.45
15 | TTTTCTTTATTATAATGTACTCACAAATAAATATAA [XGTACX_site7298] | 8.98
16 | TTTCATTTTAGAAGTACACACAAAAAATAAAATAAT [CACACA_site2141] | 9.52
17 | ATAGGATGTTTGCACTGTACCAAAAAATGAGCTGCA [XGTACX_site2825] | 9.09
18 | ACTTTTTTGAACAACGTGCACGTATTCATAACAAAA | 8.96
19 | ATCAGATATATATATTGTACATTTATATATAAATCA [XGTACX_site1960] | 9.12
20 | ATTAAAAATTATATTTTATAAAAATTAAAAGAAATA [CACACA_negctrl_site65] | 8.81
21 | AAAGTATACAATGACGCATGCATATATATATACATA [TGCATGCA_site429] | 9.35
22 | ATTTATTTATCTAGCTATTCACCATTTTCTTTTGTT [CACACA_negctrl_site1259] | 9.6
23 | TGTCCTTATTGGCACACACACATATAAGAAATTTAA [CACACA_site5724] | 9.55

Row | Sequence | gcPBM binding intensity (ln)
24 | TATTTTTTCTTAAACACACACATATAGATTTATAAC [CACACA_site7354] | 9.5
25 | TTTTTTAAAGCCTGTTCATCATCCTTACCTATCAAC [GTGCAC_negctrl_site452] | 9.08
26 | ATATGGAATGATCATAGTACATAATTTAAAATTTTA [XGTACX_site3568] | 9.19
27 | CTAATTCGTATATGCTGTACCTTTTTCTTACGACTA [XGTACX_site4392] | 9.51
28 | ACCCTATTTATATATACACACACATATATAAATAAA [CACACA_site8980] | 9.74
29 | AACATATATAATATTTGTACTTATATACAAAATATG [XGTACX_site7502] | 9.16
30 | TAGAAAATCAGTTAAACACACACATAAAAAAAAAAA [CACACA_site8933] | 9.78
31 | TATATAATATATATATGTACACATTTGCAAACAATG [XGTACX_site6941] | 9.25
32 | TTCTTATTTGTACTAGTGCAATAGAAAATAAATAAA [GTGCAC_site9731] | 8.96
33 | GAATATGTAAAGAAAGGTACACATGAAAATATGTGT [XGTACX_site446] | 9.42
34 | ATGAATTAATCTAATCGTACAATAAGCATTATTATA [XGTACX_site2571] | 9.03
35 | TGTACCTACAAAATATGATATATTTTTATAAATTGT [XGTACX_negctrl_site498] | 9.09
36 | TATATATATATACATACATGCATATATATATATATA [TGCATGCA_site513] | 9
37 | AATATATCTTATTTAACACACACAAAGAAAATAGAA [CACACA_site9242] | 9.98
38 | TGTTATCAGAAAGCACGTACATATAATTATATATTC [XGTACX_site4188] | 9.28
39 | AATACAATAAAAAAAAGTACACATGTATAAAAAATT [XGTACX_site8270] | 9.82
40 | AAAAAAAAAAAAAGTACACACATACAGATAAATATA [CACACA_site5067] | 9.66
41 | ATAAATTGATTCAACACACACATATGTAGGAAGTTA [CACACA_site3253] | 9.63
42 | TTTTTTAAATTGGTAGTGCAATATGATTGAACAAAA [GTGCAC_site9715] | 8.95
43 | GGGTATACCAATATAACACACATATATATATAATAT [CACACA_site450] | 9.51
44 | AAATTATTAAAAAAGTGTACATATTTTTATAATACC [XGTACX_site5610] | 9.19
45 | ATAAGCATACATATTACACACATATAACATCTATAT [CACACA_site7219] | 9.68
46 | TTAATCAAATTACTATGTACATAAAACATATAAGAA [XGTACX_site381] | 9.28

Row | Sequence | gcPBM binding intensity (ln)
47 | TATTTTTTTTCAAAAAAGTTTATTTAGAACTAAATA [XGTACX_negctrl_site487] | 8.6
48 | AAATATACATACATATGTACATATATATATATATAT [XGTACX_site8202] | 9.21
49 | ACAATAAAGAACAGTATGCACTTTTATGCATGCGTA | 9.26
50 | ATAGTTAAAAAAAAAAAAAAAAAAAAAAGAGAGAGA [CACACA_negctrl_site1307] | 9.21
51 | CTTTTTCTTTTCCGGCGTACAGACTTAGTAGTAGAT [XGTACX_site2268] | 9.11
52 | TAAAATATAGGAAATACATGCATATTAAATATTCCT [TGCATGCA_site1057] | 9.26
53 | TACTTCATTCATTTTACACACATATAAACCCTTTTA [CACACA_site3229] | 9.7
54 | TACATGCAAAAAATTCCACACACACCCCCACATATA [CACACA_site8329] | 10.2
55 | TATATAGCTAAAAACACACAAATATGTACACATAAA [CACACA_site7665] | 9.58
56 | ACTAATACATAAAAAAGTACAAATATGAGTATTAAC [XGTACX_site7281] | 9.71
57 | AATATTCAATATAAAGTGCATTATTGTGGACCTAAT | 9.4
58 | CAATTATTGTAATGCATGCACTGAATATAAAAAGAA | 9.29
59 | TTTATATGTATTAAGTGTACACATATAATGTATTTT [XGTACX_site16] | 9.25
60 | AAATTAATGTATATGTGAAGCAAGGGATGCGGCAGA [CACACA_negctrl_site406] | 9.67
61 | ATATATATATATATATAATATATAATATATATATAT [CACACA_negctrl_site96] | 8.94
62 | TAAAAAAAAACTCATGCACACAATATTATGAAAAAG [CACACA_site665] | 9.57
63 | TTATTTACAACTTCAAATTATGTGTAATACTACTAT [CACACA_negctrl_site741] | 9.27
64 | AAATATTATGTACGCACACACATTTTTAATATATAA [CACACA_site3851] | 9.58
65 | AGCACATTATTCAAAAGTACAAATAGGTATTGTATA [XGTACX_site6107] | 9.18
66 | TTTTTTTCTTTTTACATACACACAAAAAAATAAAAT [CACACA_site580] | 9.27
67 | AATATAAAAAAAAAAAAAAAAAAAAAAAAAAAGACA [CACACA_negctrl_site983] | 9.49
68 | TTGTTAATATGATAAAAGAGGAATATTCTCTTCCTA [GTGCAC_negctrl_site659] | 8.79
69 | AAGAGTTAAAAAAATACACACATATAGATTTTTTTA [CACACA_site7018] | 9.42

Row | Sequence | gcPBM binding intensity (ln)
70 | ATAAATAAAAAAGAAAGAAAGAAAGAAACAAACAAA [CACACA_negctrl_site1198] | 9.84
71 | TATTAATGCAAATGTTATATGTGCATACATAAATGT [CACACA_negctrl_site790] | 9.12
72 | TATTACATACATATCTGTACATATATTAATGCACAA [XGTACX_site3315] | 9.1
73 | AAAAATATTAAAAAAGGTACACAGCATATCTCTTTT [XGTACX_site65] | 9.31
74 | TTCATATTCGATAAAGTGCATTAATTTTATTTATCA | 9.08
75 | TCCAATTGTTCTAGTGTGCACATAAATAAATCTCAT | 9.35
76 | AATACTTTTTTCTGTACACACTTGATTTACTATAAT [CACACA_site5544] | 9.74
77 | GATAAAGTAAAAATATGTACATATATATTTTAAGTT [XGTACX_site6439] | 9.31
78 | TATATCTGTAAATGCACACATATGTGGATATACTTA [CACACA_site5013] | 9.31
79 | GTTCATTCATTTTAATGTACAAATTTAACTTTTTCT [XGTACX_site680] | 9.16
80 | TCTAATAATATATACACACACATATATATTTATATA [CACACA_site2032] | 9.71
81 | TGCTACATTCTATGTACACACATATACATATATATA [CACACA_site893] | 9.52
82 | TATAAATATAAATACACACACATATAGATTATAGAT [CACACA_site6429] | 10.1
83 | AGAAATTATAAATACCTACACACTTATCAAAATAAA [CACACA_site2264] | 9.55
84 | TAAGACATGATATATACACACCTTGTTTTAATTTTC [CACACA_site5282] | 9.43
85 | AATTAAAATACAAATGTATGCATGTCTCATATAGAA [TGCATGCA_site822] | 9.28
86 | TTACGAATTACATATTGTACATATGCACAATTTTAA [XGTACX_site6802] | 8.99
87 | TACATAATTTAAAATTTTATAAGTTGTAATTCGTTT [XGTACX_negctrl_site308] | 9.09
88 | ATAAAACAACAAAGAAAATGAAAAAGTAAAAACATA [CACACA_negctrl_site596] | 9.65
89 | TATTTATAAAAAGATTGTACATTTTTTATTATTGTA [XGTACX_site6016] | 8.97

Source: the supplement of paper PMC11417369
